Experimental findings from patent US20250075002A1 (BEIGENE SWITZERLAND, published 2025) are described below.

Assay [1] has as its target HMFG1 (Abcam, cat. #ab215670). As to the kind of experiment: competitive FACS: serially diluted soluble MUC1 blocks the binding of 3 µg/ml HMFG1 to human MUC1 expressing cells.
Assay [2] concerns the target HMFG1 (Abcam, cat. #ab215670). As to the kind of experiment: competitive FACS: serially diluted soluble MUC1 blocks the binding of 0.3 µg/ml HMFG1 to human MUC1 expressing cells.
In assay [3] the target is HMFG1 (Abcam, cat. #ab215670). The assay is described as above. This is another data set of the same source.
HMFG1 (Abcam, cat. #ab215670), sequence (VH, as listed by the source, chain 1 of 2): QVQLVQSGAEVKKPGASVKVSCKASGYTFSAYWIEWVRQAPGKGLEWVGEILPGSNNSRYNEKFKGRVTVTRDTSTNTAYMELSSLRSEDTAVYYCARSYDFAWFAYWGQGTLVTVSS
HMFG1 (Abcam, cat. #ab215670), sequence (VL, as listed by the source, chain 2 of 2): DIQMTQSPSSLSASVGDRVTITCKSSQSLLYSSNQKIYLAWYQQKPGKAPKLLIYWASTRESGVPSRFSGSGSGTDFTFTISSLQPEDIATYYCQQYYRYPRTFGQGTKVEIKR

B1: soluble MUC1 (Shanghai Linc-Bio Science Co. LTD) (other)
chain: not shown
notes: the bought preparation is not described
In the case of B1, the “IC50 (read off the curve)” value in assay [1] was around 30 U/mL; in assay [2], around 6 U/mL; in assay [3], around 5 U/mL.
